Assay results published in PubChem BioAssay AID624417 (National Center for Advancing Translational Sciences (NCATS), 2012).
The whole screen tested about 410,000 compounds, of which about 6,400 (1.6%) were called active. The shares of active, inactive and inconclusive entries below differ from those in the screen. Calls come from the whole dose curve; as a rule, active = well fitted inhibition curve with a large enough effect; inconclusive = small, poorly fitted or top-dose-only effect; inactive = no such curve, though single readings can be large or run the other way. No potency is given beside an inconclusive call; the fits are too rough.

Biological target: Glucagon-like peptide 1 receptor (Homo sapiens) (UniProt P43220)
Test: qHTS of GLP-1 Receptor Inverse Agonists (Inhibition Mode); note: nearly all actives have a fitted effect of over 55% in size
Settings: HEK293 GLP-1R CRE-luciferase, luminescence, 24 h, GLP-1R form is constitutively active; activity change, negative = inhibition: at 38.3 µM (top of the series) unless noted
Procedure, shortened: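 Inverse agonism was detected as reduced cAMP-driven luciferase luminescence after 24 h compound treatment. The cells were HEK293 clones expressing constitutively active human GLP-1R with the reporter. Reporter-only and GPR119 cell lines served as counterscreen controls.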
% is set by controls: 0 for no effect and ±100 for the full control effect; potency is the fitted concentration of half-maximal effect; tags give direction and shape of the fitted curve.

Chain of UniProt P43220 (P43220 whole entry, looked up): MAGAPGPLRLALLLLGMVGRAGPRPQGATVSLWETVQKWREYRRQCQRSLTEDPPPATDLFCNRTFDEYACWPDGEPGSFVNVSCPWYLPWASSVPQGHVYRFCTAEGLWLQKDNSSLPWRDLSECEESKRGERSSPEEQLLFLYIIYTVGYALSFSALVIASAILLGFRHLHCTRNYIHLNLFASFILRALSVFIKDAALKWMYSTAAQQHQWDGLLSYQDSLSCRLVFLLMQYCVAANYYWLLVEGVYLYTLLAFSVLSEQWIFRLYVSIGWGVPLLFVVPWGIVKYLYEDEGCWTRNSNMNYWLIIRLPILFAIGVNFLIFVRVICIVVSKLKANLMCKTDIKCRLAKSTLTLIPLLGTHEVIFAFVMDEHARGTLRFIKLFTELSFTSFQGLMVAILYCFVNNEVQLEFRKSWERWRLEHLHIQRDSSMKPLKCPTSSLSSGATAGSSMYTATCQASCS

| Compound | activity change, negative = inhibition | Potency |
| --- | --- | --- |
| Cc1cccc(OC(=O)c2cccnc2)c1C | inactive: 13.3% |  |
| C/C(=N\Nc1nc(Nc2ccccc2)nc(N2CCOCC2)n1)c1cccs1 |  | inconclusive [inhibitor, single point] |
| Cc1c(CNC(=O)c2cnn3c2NC(c2ccc(Br)cc2)CC3C(F)(F)F)cnn1C (centres undefined) |  | inconclusive [inhibitor, single point] |
| COc1cccc(CN(C)CC(=O)Nc2ccccc2C(=O)Nc2ccccc2)c1 |  | inconclusive [inhibitor, partial curve, poor fit] |
| CCOc1ccccc1NC(=S)NC1CC2CCC1C2 (centres undefined) |  | inconclusive [inhibitor, single point] |
| O=[N+]([O-])c1ccc(O)c(/C=N/Nc2ccccc2Cl)c1 |  | inconclusive [inhibitor, full curve, poor fit] |
| O=C(NCCCN1CCCCC1)C1CCN(S(=O)(=O)N2CCC3(CC2)OCCO3)CC1 | inactive: 8.44% |  |
| CCc1c(C)sc2c1CCN(Cc1ccccc1F)C2c1ccccc1 (centres undefined) |  | inconclusive [inhibitor, partial curve] |
| CC1(O)CC(c2ccc(Cl)cc2)=NN1C(=O)c1ccc([N+](=O)[O-])cc1 (centres undefined) |  | inconclusive [inhibitor, full curve, poor fit] |
| CC1(C(=O)Nc2ccc(Cl)cc2)Cc2c(-c3ccc4c(c3)OCO4)ccnc2O1 (centres undefined) |  | inconclusive [inhibitor, partial curve, poor fit] |
| c1ccc(-c2cc3n(c2)CCc2ccccc2-3)cc1 |  | inconclusive [inhibitor, full curve, poor fit] |
| O/N=C/c1ccnc(SCc2ccccc2)n1 | inactive: 33.2% |  |
| O=S(Cc1cc(Oc2ccccc2)nc(-c2ccccc2)n1)c1ccccc1 (centres undefined) |  | active: 10 µM |
| COc1ccc2nc3c(cc2c1)c(NC(=O)C1CCCO1)nn3CC(C)C (centres undefined) |  | inconclusive [inhibitor, single point] |
| COc1ccc(C(=O)NC2CCCc3c2cnn3-c2ccccc2F)o1 (centres undefined) |  | inconclusive [inhibitor, partial curve, poor fit] |
| COc1cc(CNCc2ccccc2)ccc1OCC(O)c1ccccc1 (centres undefined) |  | inconclusive [inhibitor, single point] |
| CCOC(=O)c1c(-c2ccccc2)csc1NC(=O)c1ccc(N2C(=O)CCC2=O)cc1 | inactive: 0.544% |  |
| CSc1cccc(NC(=O)N2CCc3ccc(NC(=O)c4ccccn4)cc3C2)c1 |  | inconclusive [inhibitor, partial curve, poor fit] |
| COc1ccc(NC(=O)C2=C(C)Nc3nc(SCc4ccc(Cl)cc4)nn3C2c2cccc(OC)c2OC)cc1 (centres undefined) | inactive: -0.899% |  |
| CN(c1ccccc1)S(=O)(=O)c1cccc(C(=O)Nc2ccc(N3CCOCC3)cc2)c1 |  | inconclusive [inhibitor, single point] |
| CN(C(=O)c1ccc2c(c1)C(=O)N(CCC1=CCCCC1)C2=O)C1CCCCC1 |  | inconclusive [inhibitor, partial curve, poor fit] |
| O=C(NCCCOc1cccc(CN2CCCCC2)c1)c1ccc(Cl)c(Cl)c1 |  | inconclusive [inhibitor, partial curve, poor fit] |

| Compound | activity change, negative = inhibition | Potency |
| --- | --- | --- |
| Cc1cccc(NC(=S)NCCc2ccccc2)n1 |  | inconclusive [inhibitor, partial curve, poor fit] |
| Cc1cc2c(cc1S(=O)(=O)Nc1cc(C(F)(F)F)cc(C(F)(F)F)c1)OCC(=O)N2 |  | inconclusive [inhibitor, single point] |
| CC(C)N1CCN(Cc2ccc(OCc3ccccc3)cc2)CC1CCO (centres undefined) |  | inconclusive [inhibitor, partial curve, poor fit] |
| COc1ccc(N(C)C(=O)Cn2cc(S(=O)(=O)N3CCN(c4ccccc4F)CC3)c3ccccc3c2=O)c(OC)c1 |  | inconclusive [inhibitor, single point] |
| CCCNC(=O)CCn1c(-c2ccc(C)cc2)cc(C(=O)OCC)c1C |  | inconclusive [inhibitor, single point] |
| COCc1cc(C)nc(NC2CCCCC2)c1C#N |  | inconclusive [inhibitor, single point] |
| Cc1cccc(-n2c(=O)c3ccccc3n(Cc3ccc(F)cc3)c2=O)c1 |  | inconclusive [inhibitor, single point] |
| Nc1nc(CN2CCN(c3ccccc3F)CC2)nc(Nc2ccccc2)n1 |  | inconclusive [inhibitor, single point] |
| CCOC(=O)c1sc(NC(=O)c2c(-c3ccccc3)c(-c3ccccc3)nn(C)c2=O)nc1C | inactive: -26.5% |  |
| O=C(NCCc1ccc(F)cc1)C(=O)NCC1CCCN1S(=O)(=O)c1ccccc1 (centres undefined) |  | inconclusive [inhibitor, partial curve, poor fit] |
| COc1ccccc1C(CCNCc1ccc(N(C)C)cc1)c1ccc(OC(C)C)cc1 (centres undefined) |  | inconclusive [inhibitor, single point] |
| CCCCOC(=O)Nc1cc(OC)c(Cl)cc1OC |  | inconclusive [inhibitor, single point] |
| CCOC(=O)c1c(-c2cccs2)csc1NC(=O)CN1CCOCC1 |  | inconclusive [inhibitor, single point] |
| COc1ccc(N(C)S(=O)(=O)c2cccc(C(=O)Nc3ccc(-n4cnnn4)cc3)c2)cc1 |  | inconclusive [inhibitor, partial curve, poor fit] |
| CC1CCN(c2ccc(-c3cccc(NS(=O)(=O)c4ccc(F)cc4F)c3)nn2)CC1 |  | inconclusive [inhibitor, single point] |
| NC(=O)CSc1cn(Cc2ccc(F)cc2)c2ccccc12 |  | inconclusive [inhibitor, partial curve, poor fit] |
| CN(c1cc2c(c3c1ccn3C)C1CCC2O1)C1CCCCC1 (centres undefined) |  | inconclusive [inhibitor, single point] |
| CCCCNc1ncnc2c1cnn2Cc1ccc(Cl)cc1 |  | inconclusive [inhibitor, partial curve, poor fit] |
| Cc1ccc(-c2nc(C)c(CCNC(=O)c3ccccc3Br)s2)cc1 |  | inconclusive [inhibitor, single point] |
| COc1ccc(OC)c(NC(=O)CCOc2cccc(C)c2)c1 |  | inconclusive [inhibitor, single point] |
| CC(NC(=O)Nc1ccc(Cl)cc1)C(c1cccs1)N1CCOCC1 (centres undefined) |  | inconclusive [inhibitor, single point] |
| Cn1c(-c2csc(-c3ccccc3)n2)n[nH]c1=S |  | inconclusive [inhibitor, single point] |

| Compound | activity change, negative = inhibition | Potency |
| --- | --- | --- |
| CCOC(=O)C(=O)NNc1ccc(C)cc1 |  | inconclusive [inhibitor, full curve, poor fit] |
| O=S(=O)(c1ccc(NC(=S)N/N=C/c2c3ccccc3cc3ccccc23)cc1)N1CCOCC1 | inactive: 4.74% |  |
| CC(C)C(=O)NC(c1ccco1)c1c(O)ccc2ccccc12 (centres undefined) |  | inconclusive [inhibitor, single point] |
| CCCc1nn2c(=O)cc(COC(=O)CNC(=O)COc3ccc(C)cc3)nc2s1 | inactive: 11.4% |  |
| Cc1ccc(NC(=O)CN(C)C2CCCCC2)cc1Br |  | inconclusive [inhibitor, partial curve, poor fit] |
| COc1cc(OC)c(N(C)C(=O)Nc2cn(CC(C)C)c(=O)c3ccccc23)cc1Cl | inactive: -17% |  |
| CN(C)C(=O)c1ccc(NC(=O)c2ccc(-c3ccc(Cl)cc3)o2)cc1 |  | inconclusive [inhibitor, single point] |
| CN(C)C(=O)C#Cc1ccccc1 | inactive: 0.929% |  |
| COc1cc(/C=N/n2cc(-c3ccccc3)[nH]c2=S)cc(OC)c1O | inactive: 9.09% |  |
| CCOc1cc(/C=C(/C#N)c2nc3ccccc3[nH]2)ccc1Oc1ccc([N+](=O)[O-])cn1 |  | inconclusive [inhibitor, full curve] |
| COc1cccc(NC(=O)C2CCC(CNS(=O)(=O)c3cccc4cccnc34)CC2)c1 (centres undefined) |  | inconclusive [inhibitor, partial curve, poor fit] |
| Cc1ccc(/C=C/c2nnc(-c3ccccc3)o2)cc1 | inactive: -1.48% |  |
| CC(C)(C)N(Cc1ccccc1)C(=O)COC(=O)C1CCN(c2ccc(C(F)(F)F)cn2)CC1 |  | inconclusive [inhibitor, single point] |
| CC(=O)Nc1ccc(Nc2cc(C(C)C)nc3c(-c4ccccc4)c(C)nn23)cc1 |  | inconclusive [inhibitor, full curve, poor fit] |
| CCOc1ccc(CN(C)C(=O)CNC(=O)Cc2cccc3ccccc23)cc1 |  | inconclusive [inhibitor, partial curve, poor fit] |
| COc1ccc(C(C[N+](=O)[O-])c2c(-c3ccccc3)cc3ccccn23)cc1 (centres undefined) |  | inconclusive [inhibitor, single point] |
| O=C1C(=C2SCCCS2)CC/C1=C\c1ccc(F)cc1 |  | inconclusive [inhibitor, full curve, poor fit] |
| O=C(/C=C/c1ccc(Cl)cc1)NCc1cccs1 | inactive: -11.4% |  |
| Cc1ccc(/C=N/NC(=S)N2CCOCC2)cc1 |  | inconclusive [inhibitor, partial curve, poor fit] |
| COc1cccc(Nc2nc(N)nc(CCl)n2)c1 |  | inconclusive [inhibitor, single point] |
